# Read counts are not given, so values of variants with three or more changes are uncertain.
# B1: LINE1-mini (parent)
# chain: GGCAGAGCUCAACACAGCGUGGCAAAGUGGCUGUGGCUAGACUGCC
# Variants of: B1
# Test: self-cleavage, relative activity (ratio to wild type); higher = more cleavage; in vitro, sequencing; the parent is a self-cleaving ribozyme
row,Variant,self-cleavage
1,C18U U32A A39C,0.12
2,C18U G19C G22C A26U G35U,0.01
3,C18U G29C G44A,0.77
4,G19A U20A G21C G29A,0.1
5,G19A C23G C37A,0.03
6,C18U A26U G33A,0.01
7,G19A U20G A26C G30U,0.25
8,C18U G29A G30U C37A,0
9,C18U A24G G27A G29U G30A G35U,0.24
10,C18U G36C C46U,0.01
11,G19A U28C G40C,0.12
12,G19A G21C C37U,0.02
13,G19A C23U G33A G44A,0.13
14,C18U U32G G44U,0.07
15,G19A G21C G33C U43G,0
16,C18U U43G G44U,0.06
17,C18U G19U G21A U32C,0.04
18,G19C C23U G33A C37A,0.09
19,G19A A25C U32C,0.03
20,C18U G21U A39C,0.12
21,C18U G30A C31A C42A C45U,0.04
22,C18U C23A U38A G40U U43C,0.1
23,C18G G27C C45U,0.04
24,C18U A26U C31A,0.07

row,Variant,self-cleavage
1,G19A G35U A41U G44A,0.04
2,C18U G21U A25C U43A C45A,0.01
3,C18U U32G A41U,0.11
4,G19A U38A G44U,0.19
5,G19C C37U U38A,0.04
6,G19A G40A C42A,0.1
7,G19A U43G C45U,1.63
8,C18U A25C C45G,0.02
9,C18U G22A C46A,0.81
10,C18U U32A U38C,0.04
11,C18U G33U G40U,0.02
12,G19A G33U G35U U38C C45A,0.01
13,C18G G22U A25G G35C A41U,0
14,C18G U20A A26C G29C C45A,0.14
15,C18G G27C G30U U43A,0
16,C18U G29C G33C U43G,0
17,G19A A24U G30C C37U A41G,0.04
18,C18U G22A C45U,1
19,G19A C23U U32C,0.33
20,G19C C31U C37U A41C C46A,0.01
21,C18U G33U C42U C45G,0.11
22,C18G U20A U32G,0.02
23,G19C A25C A39U,0.12
24,C18G G33C G35A,0.07

row,Variant,self-cleavage
1,C18G G33C G35U,0.03
2,G19A G22A G27U G33A,0.33
3,C18U G19C U20A,0.13
4,G19A G22A G35A,0.09
5,C18G U20A A26U G36A,0.05
6,C18U G19U A24C C37U,0.02
7,G19C C31U G35U C37A,0.05
8,G19C C37A A41G G44A,0
9,C18U G21C G29A,2.05
10,G19A A26C G29C U34C A41C C42U,0.07
11,C18U G21A G27U G35C,0.02
12,C18U G22C U43A C45U,0.03
13,G19C C23G G27C G30A C37A,0.01
14,C18G U34A A41U,0.01
15,C18U G22U G33A C37A,0.16
16,C18U G19U G21U A26U G36U,0.02
17,C18U U34C G40A,0.02
18,G19C G21C A39C,0.03
19,C18U U32G G36U,0.02
20,C18U G22U C31U,0.06
21,G19C C42A G44C,0.03
22,C18U G27A U34A,0.38
23,G19C A26U G30A,1.21
24,G19A C23A G44A,0.04

row,Variant,self-cleavage
1,G19C G21A U32A,0.19
2,C18G G27U G29A,0.28
3,C18U U38G C46G,0
4,C18U C37G G40A A41C,0.01
5,C18U G33U U38C A39G,0.19
6,G19A C23U G27A G29A U32G C37A U38C,0.03
7,C18U G27A G29C U32A U34G,0.04
8,C18U G30A C31A A39G,0.06
9,C18U U20A C23A A25G,0.64
10,C18G U28G U32G,0.04
11,C18U U28C G30C G35U,0.06
12,G19A G22U G30C,1.09
13,C18U G36U C45A,0.05
14,C18U G21A G27C G36A,0.1
15,G19A G33C U43C,0.03
16,C18U G30A G40U,0.13
17,C18U U28A G33U G40C C46A,0.01
18,C18U U20G U28G,0.09
19,C18U C37A U38G,0
20,C18U G22A A41C C46U,0.02
21,G19A A26G G29U,1.88
22,G19A A26C U32A C42A,0.02
23,G19A G29U G36A C37U,0.16
24,C18G G33U G40A U43A,0.03

row,Variant,self-cleavage
1,C18G G29U A39G,0.14
2,C18U A26G G33U,0.03
3,G19C C23U A25C A26G G35U A41U,0.05
4,C18G G30A G40U,0.01
5,C18U G29A C37U,0.04
6,C18U G44C C46A,0.05
7,G19A G36A C46A,0.07
8,G19A G21A A41U,1.31
9,C18U U34G A39G C46U,0.01
10,G19C A24G G35C,0.14
11,G19A G27A G29U C31U A39U,1.06
12,G19A U32C C37A G44A,0.01
13,C18U G27U G29A U38C C45G,0.07
14,C18U C23A U34G,0.13
15,G19A U28C A39G C42U,0.03
16,G19C A24C G30U,0.28
17,C18U G35A G40U,0.07
18,C18U G33U U34A,0.07
19,C18U G29U C37G A41U G44U,0.01
20,G19A U20C G36U,0.04
21,G19A U28A C37G U38A,0.01
22,C18U A25C U32G A39U,0.02
23,G19A G29C G36C,0.08
24,C18U G21C C42U,0.53

row,Variant,self-cleavage
1,C18U U20A G22C,0.1
2,C18U U38G C42G,0.03
3,C18U C37A G44A,0.04
4,G19C C23U A25G,0.25
5,G19A C23U A25G G30U,0.22
6,G19A U20G C37A,0.02
7,G19A U20G U32G G33U G35A U38A,0.03
8,C18U G19U C37G,0.03
9,G19A A26G C37A,0.03
10,C18G G36A C37U,0.01
11,G19A A26C G33A,0.4
12,C18G G29U U34A,0.12
13,C18U G30C C45A C46U,0.01
14,C18G U43A G44U,0.04
15,G19A G21U C37U G44U,0.13
16,C18U C23A C42G C45A,0.11
17,G19A C31A U38G,0.13
18,C18U U43C C46A,0.12
19,G19A G33U G35A C37A,0.03
20,C18U G19C C46G,0.2
21,G19A G22U G40U C45A,0.03
22,C18U U20A A41G,0.34
23,C18U A25U U34A,0.02
24,C18G G22C G40U,0.04

row,Variant,self-cleavage
1,G19A G22A U34G G40U,0.02
2,C18U C23U A24C A25U G44C,0.04
3,C18U C23G G35C U38G,0
4,G19C A26U U32G,0.38
5,G19A G21C G29U G44U C45A,0.03
6,C18U C31U U34C,0.02
7,C18U G27U C31G A39G,0.01
8,C18U A25U A41C G44A,0.01
9,G19A G21U G36C,0.45
10,C18U G21U A24G,0.62
11,G19A A25G G33U C45U C46U,0.07
12,C18U C31G G33A G35U A41U,0.03
13,G19A G22U A39G,0.14
14,C18U C45U C46A,0.39
15,G19A U34C A39C,0.02
16,C18U A26C A41C,0.1
17,G19C G21A G35U,0.05
18,G19A G22U G33C A41G,0.05
19,C18G G22U C23G,0.44
20,G19A C31A C37G,0.08
21,C18G G27U U32A C42U,0.01
22,C18U U28G G30U G33U C37A,0.22
23,C18U G35A C37U U38G G40A,0.01

# Source: the RNAGym collection of RNA variant scans (doi:10.7554/elife.90254)
